Experimental data taken from PubChem BioAssay AID686978 (National Center for Advancing Translational Sciences (NCATS), 2013).
About 64,000 (15%) of roughly 420,000 compounds were called active. The shares of active, inactive and inconclusive entries below differ from those in the screen. Calls follow the shape of the dose curve; as a rule, active = well fitted inhibition curve with a large enough effect; inconclusive = small, poorly fitted or top-dose-only effect; inactive = flat fitted curve, though single readings scatter. No potency is given beside an inconclusive call; the fits are too rough.

assay: qHTS for Inhibitors of human tyrosyl-DNA phosphodiesterase 1 (TDP1): qHTS in cells in absence of CPT; conditions: DT40 Tdp1-/- hTDP1 cells, no CPT, ATP luminescence, 48 h; activity change, negative = growth inhibition: at 46.2 µM (top of the series); also: nearly all actives have a fitted effect of over 55% in size
Procedure, shortened: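 Camptothecin absent (DMSO only). Human TDP1-complemented DT40 knockout cells, 400 cells/well, 37 °C for minimum 48 hr; ATP measured via CellTiter-Glo, 30 min dark incubation, luminescence.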
% is scaled to controls: 0 for no effect and ±100 for the full control effect; potency is read from the fitted curve at half-maximal effect; tags tell the direction and shape of the fitted curve.

Row | SMILES | Potency | activity change, negative = growth inhibition
1 | Cc1c(/C=N/O)c2ccccn2c1C(=O)c1ccc(F)cc1 | inconclusive [inhibitor, partial curve] | –
2 | O=S(=O)(NCc1nc(N2CCCC2)c2cc(Cl)ccc2n1)c1ccccc1OC(F)(F)F | – | inactive: -27.5%
3 | COc1cc(CN(CCN(C)C)Cc2ccccc2)ccc1OCc1ccccc1 | active: 23.1 µM | –
4 | COCCn1c(=S)[nH]c2cc(C(=O)N3CCN(Cc4ccccc4)CC3)ccc2c1=O | inconclusive [inhibitor, partial curve] | –
5 | COC(=O)CNC(c1ccccc1)c1cc(C)ccc1NC(=O)CNC(=O)OCc1ccccc1 (stereo not drawn) | inconclusive [inhibitor, partial curve, poor fit] | –
6 | CC(=O)NC(NC(=S)Nc1ccccc1Br)C(Cl)(Cl)Cl (stereo not drawn) | – | inactive: -17.9%
7 | COc1ccccc1NS(=O)(=O)c1cccc(NC(=O)c2ccc3ccccc3n2)c1 | active: 16.4 µM | –
8 | c1ccc(-c2noc(CN3CCN(c4cnccn4)CC3)n2)cc1 | inconclusive [inhibitor, single point] | –
9 | O=C1C(=O)N(Cc2cccs2)c2ccccc21 | active: 5.17 µM | –
10 | O=C(c1ccncc1)N1N=C(c2ccc(Cl)cc2)CC1c1ccccc1O (stereo not drawn) | inconclusive [inhibitor, partial curve] | –
11 | CCOC(=O)N1CCN(c2nnc(-c3ccccc3)c3ccccc23)CC1 | inconclusive [inhibitor, partial curve, poor fit] | –
12 | O=C(Nc1cccnc1)C1Cc2c(-c3ccc4c(c3)OCO4)ccnc2O1 (stereo not drawn) | active: 1.03 µM | –
13 | COc1ccc(C(=O)COC(=O)/C=C/c2ccccc2)c(OC)c1 | – | inactive: 9%
14 | CC1CN(CCCSc2ccc(Cl)cc2)CC(C)O1 (stereo not drawn) | inconclusive [inhibitor, single point] | –
15 | CCc1ccc(-n2c(C)nc3cc(C(=O)NCCc4ccccc4)ccc32)cc1 | inconclusive [inhibitor, single point] | –
16 | CCC1CCCCN1S(=O)(=O)c1ccc(NC(=O)C2CCN(C(=O)c3ccco3)CC2)cc1 (stereo not drawn) | inconclusive [inhibitor, partial curve] | –
17 | C/C(=N\NC(=O)CC#N)C1COc2ccccc2O1 (stereo not drawn) | inconclusive [inhibitor, single point] | –
18 | C#CCN(C[C@@H](CC(C)C)NC(=O)OC(C)(C)C)S(=O)(=O)c1ccc(Br)cc1F | inconclusive [inhibitor, single point] | –
19 | CC(=NNC(=S)N1CCCC1)c1ccccn1 | – | inactive: -90%
20 | CC1c2ccsc2CCN1C(=O)NC(=O)c1ccc(Cl)cc1 (stereo not drawn) | inconclusive [inhibitor, single point] | –
21 | CCOc1ccc(Nc2nc(Cc3nnc(SCC(=O)c4ccc(C)cc4)o3)cs2)cc1 | inconclusive [inhibitor, partial curve] | –
22 | CCC(C(=O)NC(C)CCc1ccco1)n1nc(C)n2c(cc3occc32)c1=O (stereo not drawn) | – | inconclusive: -34.3% [inhibitor]
23 | CN(C)c1ccc(CN(CC2CCCO2)C(=O)COc2ccc(Cl)cc2)cc1 (stereo not drawn) | active: 18.4 µM | –
24 | CCOc1ccc(/C=C2\SC(N3CCCCC3)=NC2=O)cc1 | active: 2.91 µM | –
25 | Cc1cc(-n2c(=O)c(C#N)cc3c(=O)n4cccc(C)c4nc32)no1 | – | inactive: -16.3%

Row | SMILES | Potency | activity change, negative = growth inhibition
26 | CC(=O)N1CCCc2cc(S(=O)(=O)N3CCCC(C(=O)NCc4ccc(Cl)cc4)C3)ccc21 (stereo not drawn) | inconclusive [inhibitor, single point] | –
27 | CC(=O)Nc1cccc(-c2ccnc3c2CC(C(=O)Nc2cccc(Oc4ccccc4)c2)O3)c1 (stereo not drawn) | inconclusive [inhibitor, partial curve, poor fit] | –
28 | COc1nc(N)nc2c1ncn2C1OC(CO)CC1O (stereo not drawn) | active: 1.46 µM | –
29 | Cc1cc(O)c(C(c2cccc(Cl)c2)N2CCN(c3ccccc3)CC2)c(=O)n1Cc1ccco1 (stereo not drawn) | inconclusive [inhibitor, single point] | –
30 | CCOc1ccccc1Nc1ccc(C(=O)O)cc1[N+](=O)[O-] | – | inactive: 8.42%
31 | COc1ccc(CCNC(=O)C(=O)NCC2OCCN2S(=O)(=O)c2ccccc2)cc1 (stereo not drawn) | inconclusive [inhibitor, single point] | –
32 | Clc1ccc(C2=NNC(=NCC3CCCO3)SC2)cc1 (stereo not drawn) | – | inactive: -26.5%
33 | COc1cccc(Oc2ncnc(N)c2[N+](=O)[O-])c1 | – | inactive: -11.2%
34 | Cc1nc(N2CCCC2)ncc1C(=O)Nc1ccccc1 | – | inactive: -10.4%
35 | CC(C)CC(=O)Nc1ccc(C(=O)OCc2cc(=O)n3nc(C4CCCCC4)sc3n2)cc1 | inconclusive [inhibitor, partial curve] | –
36 | Cc1cc(C)c2c(=O)[nH]c(=O)n(Cc3ccccc3)c2n1 | inconclusive [inhibitor, single point] | –
37 | Cc1ccc(C(=O)CCC(=O)N2CCN(C(=O)c3ccco3)CC2)cc1 | – | inactive: -3.92%
38 | Cc1cc(C)n(CCn2nc(C)cc2C)n1 | – | inactive: -22.5%
39 | CCN1/C(=C/c2ccc3ccc(C)cc3[n+]2CC)Sc2ccccc21 | active: 2.06 µM | –
40 | COc1cccc(CN2C(=O)c3ccccc3C2C(=O)NCCc2ccc(OC)c(OC)c2)c1 (stereo not drawn) | inconclusive [inhibitor, single point] | –
41 | CCOC(=O)c1c(C)nn(-c2ccc(NC(=O)c3cccs3)cc2)c1C | active: 16.4 µM | –
42 | CC(=O)C1=C(C)NC(C)=C(C(C)=O)C1c1cn(-c2ccccc2)nc1-c1cccs1 | – | inconclusive: -37.3% [inhibitor]
43 | CC1CN(S(=O)(=O)c2cccc(C(=O)Nc3ccc(S(=O)(=O)NC4=NCCCCC4)cc3)c2)CC(C)O1 (stereo not drawn) | inconclusive [inhibitor, single point] | –
44 | COc1ccc(C2=CC(=O)CC(c3ccc(F)cc3)C2)cc1 (stereo not drawn) | – | inactive: -27.1%
45 | O=C(c1ccc(C(F)(F)F)cc1)N1CCN(S(=O)(=O)c2ccc3c(c2)OCCCO3)CC1 | inconclusive [inhibitor, partial curve] | –
46 | Cc1nc2sccn2c(=O)c1Br | – | inactive: -11.9%
47 | CCCOc1ccc(/C(O)=C2/C(=O)C(=O)N(CCCn3ccnc3)C2c2cccnc2)cc1 (stereo not drawn) | – | inactive: -11.6%
48 | Cc1cc(=O)oc2cc(OCC(=O)N3CCCc4ccccc43)ccc12 | inconclusive [inhibitor, partial curve] | –
49 | CCOc1cc(/C=N/Nc2ncnc(Cl)c2N)ccc1O | inconclusive [inhibitor, partial curve] | –
50 | Cc1nn(C)c(Cl)c1S(=O)(=O)N1CCC(CO)(CCc2ccccc2)CC1 | inconclusive [inhibitor, single point] | –

Row | SMILES | Potency | activity change, negative = growth inhibition
51 | Cc1ccc2c(c1)c(=O)c1ccccc1n2CCCC(=O)Nc1ccc(F)cc1F | inconclusive [inhibitor, partial curve] | –
52 | CC(C)C[C@H]1CN(CCCC[C@H]2CNC(=O)C(=O)N2CC2CCCCC2)C(=O)C(=O)N1Cc1ccccc1 | inconclusive [inhibitor, single point] | –
53 | N#Cc1cccc2c1-c1ccccc1/C2=N/NC(N)=O | inconclusive [inhibitor, single point] | –
54 | COc1ccccc1NC(=O)C(C)OC(=O)C(C)SCC(=O)Nc1ccc(C)cc1 (stereo not drawn) | inconclusive [inhibitor, single point] | –
55 | O=S1(=O)C[C@@H](N2CCC(Cc3ccccc3)CC2)[C@H](COCc2ccccc2)N1 | active: 23.1 µM | –
56 | c1ccc2nc(-c3nc4ccccc4o3)ccc2c1 | inconclusive [inhibitor, partial curve] | –
57 | COc1cc(S(=O)(=O)N2CCN=C2c2ccccc2)ccc1F | active: 23.1 µM | –
58 | N#Cc1ccc2c(=O)n(-c3ccccc3)sc2c1 | active: 2.59 µM | –
59 | CCOC(=O)c1cc(-c2ccc(F)cc2)n(CCC(=O)Nc2ccccc2OC)c1C | active: 20.6 µM | –
60 | COC(=O)c1ccc2nc(C)cc(Nc3ccc(O)cc3)c2c1 | active: 14.6 µM | –
61 | COc1ccc(NC(=O)Cn2c(=O)n(-c3ccc(Cl)cc3)c(=O)c3c(C)c(C(=O)N(C)C)sc32)cc1Cl | inconclusive [inhibitor, single point] | –
62 | CC(Sc1ncc(S(=O)(=O)c2ccc(C(C)C)cc2)c(N)n1)C(=O)Nc1ccccc1 (stereo not drawn) | active: 25.9 µM | –
63 | Cc1ccc(CC(=O)NNC(=O)c2ccncc2)cc1C | inconclusive [inhibitor, single point] | –
64 | CCc1nc(SCC(=O)N2CCc3cc(OC)c(OC)cc3C2)c(C#N)cc1C | inconclusive [inhibitor, single point] | –
65 | O=C(N=C1N=C2C=CC(Br)=CN2Cc2ccccc21)c1ccc([N+](=O)[O-])cc1[N+](=O)[O-] | inconclusive [inhibitor, single point] | –
66 | CCC(C)NC(=O)C1(N2C(=O)c3ccccc3C2=O)CCCC1 (stereo not drawn) | – | inactive: 2.07%
67 | COc1cccc(Cc2nc3ccccc3nc2SCC(=O)N2CCc3ccccc32)c1 | – | inactive: -0.623%
68 | CCOC(=O)c1ccc(NC(=O)C(=O)NCc2ccco2)cc1 | inactive | –
69 | O=C(NC1CC2CCC(C1)N2Cc1ccccc1)c1ccccc1Br (stereo not drawn) | – | inactive: -19%
70 | CN(Cc1ccco1)C(=O)c1c[nH]c2ccc(S(=O)(=O)Nc3ccc4c(c3)OCCO4)cc2c1=O | – | inactive: 2.2%
71 | CC(C)c1ccc(NC(=O)c2cc3c(=O)n(C)c4ccccc4c3n2C)cc1 | inconclusive [inhibitor, single point] | –
72 | O=C(COc1ccccc1)Nc1c2c(nn1-c1ccc(F)cc1)CS(=O)(=O)C2 | – | inactive: 2.05%
73 | O=C(Nc1nnc(C2=COCCO2)o1)c1ccc(F)cc1 | inconclusive [inhibitor, single point] | –
